Assay results: the supplement of paper PMC7826260
This is one part of the list. The data describe in vitro nicking of single-stranded DNA by Rep domains (1 h at 37 °C, 3 µM enzyme); the outer parts of the 90-letter strands are left off. A value is the log2 ratio of uncut reads to the pool without enzyme; strong cutting gives strongly negative numbers. There is no active / inactive call. Counts are relative to all reads; where an enzyme cuts many sequences, the uncut ones exceed 0.

Legend:
Test in all cases: uncleaved DNA left, log2 of reads against the no-enzyme library (log2 ratio); higher = less cleavage (more negative = more Rep cleavage of the k-mer); sequences stand for … in CTCGTCCG…ACCGGAGA
[1] = tested on: T1, Rep nickase domain of Muscovy duck circovirus
T1 sequence (protein, residues 1-111, tag omitted): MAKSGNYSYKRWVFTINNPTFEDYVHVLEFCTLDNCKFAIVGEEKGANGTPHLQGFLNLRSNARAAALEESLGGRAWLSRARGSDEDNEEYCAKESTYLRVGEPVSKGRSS
Description: (§1)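 A pool of 90-nt single-stranded DNAs with seven random bases just before the constant AC of the nick site (name = the seven bases) was cut by 3 µM recombinant His6-SUMO-tagged Rep nickase domain (300 nM DNA, 50 mM HEPES pH 8.0, 50 mM NaCl, 1 mM MnCl2, 1 h, 37 °C, three replicates). Uncut DNA was amplified and sequenced.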

[2] = tested on: T2, Rep nickase domain of banana bunchy top virus
T2 sequence (protein, residues 1-94, tag omitted): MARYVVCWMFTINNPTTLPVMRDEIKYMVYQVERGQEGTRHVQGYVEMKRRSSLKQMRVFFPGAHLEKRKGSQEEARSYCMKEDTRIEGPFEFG
Description: as §1

[3] = tested on: T3, Rep nickase domain of cabbage leaf curl virus
T3 sequence (protein, residues 1-116, tag omitted): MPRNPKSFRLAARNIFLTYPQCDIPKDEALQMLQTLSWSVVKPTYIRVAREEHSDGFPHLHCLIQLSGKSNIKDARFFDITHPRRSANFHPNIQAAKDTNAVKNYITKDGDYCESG
Description: as §1

[4] = tested on: T4, Rep nickase domain of chickpea chlorotic dwarf virus
T4 sequence (protein, residues 1-124, tag omitted): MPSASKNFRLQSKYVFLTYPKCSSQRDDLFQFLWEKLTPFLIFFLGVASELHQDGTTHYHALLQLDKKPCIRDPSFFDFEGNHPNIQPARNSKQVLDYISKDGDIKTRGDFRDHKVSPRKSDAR
Description: as §1

[5] = tested on: T5, Rep nickase domain of faba bean necrotic yellows virus
T5 sequence (protein, residues 1-98, tag omitted): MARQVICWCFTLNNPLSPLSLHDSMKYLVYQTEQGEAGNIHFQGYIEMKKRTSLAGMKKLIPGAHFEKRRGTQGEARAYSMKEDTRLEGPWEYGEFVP
Description: as §1

[6] = tested on: T6, Rep nickase domain of maize striate mosaic virus
T6 sequence (protein, residues 1-117, tag omitted): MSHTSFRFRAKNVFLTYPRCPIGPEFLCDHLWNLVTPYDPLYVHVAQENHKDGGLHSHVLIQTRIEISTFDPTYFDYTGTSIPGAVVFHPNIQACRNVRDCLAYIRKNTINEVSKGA
Description: as §1

[7] = tested on: T7, Rep nickase domain of porcine circovirus 2
T7 sequence (protein, residues 2-116, tag omitted): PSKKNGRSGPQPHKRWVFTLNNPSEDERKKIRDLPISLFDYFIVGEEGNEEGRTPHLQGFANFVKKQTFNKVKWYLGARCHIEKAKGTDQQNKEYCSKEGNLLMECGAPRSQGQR
Description: as §1

[8] = tested on: T8, Rep nickase domain of tomato golden mosaic virus
T8 sequence (protein, residues 1-124, tag omitted): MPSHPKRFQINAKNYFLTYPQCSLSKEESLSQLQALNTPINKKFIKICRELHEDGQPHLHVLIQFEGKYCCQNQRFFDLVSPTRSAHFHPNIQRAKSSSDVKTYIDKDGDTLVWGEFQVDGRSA
Description: as §1

[9] = tested on: T9, Rep nickase domain of tomato yellow leaf curl virus
T9 sequence (protein, residues 1-136, tag omitted): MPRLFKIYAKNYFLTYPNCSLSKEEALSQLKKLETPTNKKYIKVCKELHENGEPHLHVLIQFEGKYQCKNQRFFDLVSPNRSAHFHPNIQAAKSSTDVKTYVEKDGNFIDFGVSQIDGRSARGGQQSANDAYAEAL
Description: as §1

[10] = tested on: T10, Rep nickase domain of wheat dwarf virus
T10 sequence (protein, residues 1-137, tag omitted): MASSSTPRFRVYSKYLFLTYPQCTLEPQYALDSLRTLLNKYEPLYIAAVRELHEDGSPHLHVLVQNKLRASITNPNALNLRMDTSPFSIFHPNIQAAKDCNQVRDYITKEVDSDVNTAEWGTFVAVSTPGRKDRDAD
Description: as §1

| Sequence | uncleaved DNA left (log2) [1] | uncleaved DNA left (log2) [2] | uncleaved DNA left (log2) [3] | uncleaved DNA left (log2) [4] | uncleaved DNA left (log2) [5] | uncleaved DNA left (log2) [6] | uncleaved DNA left (log2) [7] | uncleaved DNA left (log2) [8] | uncleaved DNA left (log2) [9] | uncleaved DNA left (log2) [10] |
| --- | --- | --- | --- | --- | --- | --- | --- | --- | --- | --- |
| TGCTCGG | 0.0248 | -0.0349 | 0.428 | 1.28 | -0.0842 | 1.8 | -0.0349 | 0.0257 | -0.138 | -0.034 |
| AGTTTCC | -1.25 | -0.0221 | 0.0038 | -0.205 | -0.146 | -0.0741 | -2.79 | -0.101 | -0.127 | -0.165 |
| TTGGGCA | 0.167 | 0.169 | 0.738 | 1.33 | 0.11 | 1.33 | 0.179 | 0.137 | 0.138 | 0.139 |
| AAAATTA | 0.0679 | 0.0938 | -0.194 | -2.39 | 0.0836 | -0.784 | -0.166 | 0.026 | -0.0845 | 0.02 |
| GACATCT | 0.0452 | 0.0253 | 0.549 | -0.405 | 0.0124 | 1.46 | -0.184 | -0.0167 | 0.0298 | 0.0843 |
| GCGCGTG | 0.118 | 0.111 | -0.104 | 0.185 | 0.19 | 0.249 | 0.198 | 0.208 | -0.0706 | -0.0228 |
| TCCGCGC | -0.00198 | -0.147 | -0.811 | -0.247 | -0.167 | -0.687 | -0.000225 | -0.159 | -0.147 | -0.313 |
| TAAGGCG | -0.0366 | -0.0536 | -0.875 | 0.169 | 0.0292 | -0.915 | 0.0947 | -0.0422 | -0.156 | -0.224 |
| ACGTATA | -0.0522 | 0.0232 | -0.187 | -1.36 | -0.0618 | -0.424 | -0.181 | -0.0331 | -0.182 | -0.0662 |
| TAGTTCT | -3.51 | -3.46 | -2.93 | -2.98 | -3.14 | -0.337 | -4.39 | -0.66 | 0.118 | -0.484 |
| AGCCTCT | 0.161 | 0.0483 | 0.0272 | -0.875 | -0.00276 | 0.556 | -0.268 | 0.0254 | 0.0418 | 0.0257 |
| TTGACAG | 0.119 | 0.0538 | -0.131 | 0.173 | 0.0222 | -0.542 | 0.156 | 0.043 | 0.103 | -0.0262 |
| AGAGTAG | -0.0283 | 0.0488 | -0.521 | -0.464 | 0.0914 | -1.11 | 0.247 | 0.13 | 0.129 | -0.0341 |
| TTTTTTC | -0.062 | -0.101 | 0.147 | -0.176 | -0.0358 | -0.634 | -0.0678 | -0.171 | -0.0935 | -0.0511 |
| TGACGTG | 0.277 | -0.018 | -0.15 | 0.0177 | 0.015 | -0.166 | 0.213 | 0.0328 | -0.0596 | -0.0682 |
| CGCTTTG | -0.00455 | -0.0617 | -0.369 | -0.298 | -0.0449 | -0.53 | -0.0363 | -0.0989 | -0.0846 | -0.049 |
| ATCTCGC | -0.0197 | -0.0579 | -0.583 | -0.664 | -0.0898 | -1.07 | -0.0201 | -0.24 | -0.0961 | -0.122 |
| ATTATAC | 0.000557 | 0.113 | 0.0272 | -0.895 | 0.0727 | -0.85 | -0.00668 | 0.0974 | 0.0232 | 0.0403 |
| GAGGAAA | 0.0541 | 0.104 | 0.674 | 1.66 | 0.0659 | 1.88 | 0.16 | 0.126 | 0.0704 | 0.161 |
| TCCCAGC | 0.0234 | -0.0776 | -0.226 | -0.565 | -0.0115 | -0.845 | -0.00979 | 0.0197 | -0.187 | -0.181 |
| CCAACTT | -0.135 | -0.178 | -0.31 | -2.42 | -0.084 | -0.333 | -0.452 | -0.171 | -0.0801 | -0.111 |
| AGCATGA | -0.0833 | -0.0809 | -0.0777 | 0.532 | -0.0588 | 0.878 | -0.0403 | 0.0796 | -0.0888 | -0.00233 |
| CATTGGG | -0.00852 | -0.1 | -0.674 | 0.595 | 0.0768 | -0.167 | 0.08 | -0.0417 | 0.153 | 0.00364 |
| AAAGTTA | 0.023 | 0.0393 | -0.332 | -1.57 | 0.0417 | -0.306 | -0.146 | 0.147 | -0.0443 | -0.0538 |
| CACAGAT | 0.109 | 0.00174 | 0.222 | 0.291 | 0.107 | 0.699 | -0.00337 | 0.0204 | -0.0516 | -0.0131 |
| CCTTACA | -0.000521 | 0.137 | -0.114 | -2.46 | 0.139 | -0.525 | -0.036 | 0.166 | 0.163 | 0.0771 |
| TTAGCGG | 0.0211 | -0.014 | 0.398 | 1.04 | -0.0811 | 1.21 | 0.0868 | 0.0856 | -0.071 | 0.0246 |
| TCTGTAT | -0.0211 | -0.0264 | 0.172 | -0.354 | 0.000965 | 0.0688 | -0.0117 | 0.00575 | -0.0103 | -0.139 |
| CTTGCAC | 0.00948 | -0.0274 | -0.514 | -0.715 | 0.0911 | -1.01 | 0.0427 | -0.0777 | -0.0344 | -0.141 |
| ATAATGC | -0.00937 | 0.0231 | -0.462 | -0.694 | 0.0352 | -1.18 | 0.0902 | -0.0527 | -0.0275 | -0.0983 |
